Results taken from PubChem BioAssay AID1634 (National Center for Advancing Translational Sciences (NCATS), 2009).
Among all 260,000 compounds or so, about 150 (0.058%) were called active. The shares of active, inactive and inconclusive entries below differ from those in the screen. Calls come from the whole dose curve; as a rule, active = well fitted inhibition curve with a large enough effect; inconclusive = small, poorly fitted or top-dose-only effect; inactive = no such curve, though single readings can be large or run the other way. Potencies of inconclusive entries are left out as doubtful fits.

molecular target: Pyruvate kinase PKM (Homo sapiens) (UniProt P14618); experiment: qHTS Assay for Inhibitors of Human Muscle isoform 2 Pyruvate Kinase; details: purified PKM2, ATP generation, Kinase-Glo luminescence; series mostly up to 57.5 µM; note: nearly all actives have a fitted effect of over 60% in size
Chain of UniProt P14618 (P14618 whole entry, looked up, canonical isoform): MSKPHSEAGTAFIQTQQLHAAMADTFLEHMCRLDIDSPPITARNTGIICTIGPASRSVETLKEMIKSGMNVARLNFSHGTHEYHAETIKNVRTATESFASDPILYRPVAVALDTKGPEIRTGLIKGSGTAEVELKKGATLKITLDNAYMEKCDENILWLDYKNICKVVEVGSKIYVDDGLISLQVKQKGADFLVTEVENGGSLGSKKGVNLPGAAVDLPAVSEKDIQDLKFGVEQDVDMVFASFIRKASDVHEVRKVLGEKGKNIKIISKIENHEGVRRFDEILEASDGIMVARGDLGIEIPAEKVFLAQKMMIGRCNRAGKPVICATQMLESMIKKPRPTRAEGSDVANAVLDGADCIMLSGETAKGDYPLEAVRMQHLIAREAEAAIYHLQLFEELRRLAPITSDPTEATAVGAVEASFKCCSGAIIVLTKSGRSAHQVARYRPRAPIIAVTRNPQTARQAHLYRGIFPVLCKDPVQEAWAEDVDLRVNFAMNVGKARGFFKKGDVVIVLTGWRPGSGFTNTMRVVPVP
Summary of the method: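 Coupled luciferase luminescence (Kinase-Glo) detects ATP generated from 0.1 mM ADP and 0.5 mM PEP in imidazole buffer pH 7.2 with KCl, MgCl2; 1 h at room temperature. Enzyme at intermediate activity; normalized to uninhibited and no-enzyme controls.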
Potency is the fitted concentration of half-maximal effect; tags give direction and shape of the fitted curve.

Compound	Potency
O=C1c2ccccc2C(=O)N1Cc1ccccn1	inconclusive [falling, single point]
Cc1ccc(NC(=O)C2C3C=CC4(CN(Cc5cccnc5)C(=O)C24)O3)cc1F (stereo not drawn)	inactive
COc1ccc(NC(=O)CC2C(=O)N(C)C(=S)N2Cc2ccncc2)cc1 (stereo not drawn)	inconclusive [falling, single point]
COC(=O)c1ccc(COc2ccccc2/C=C/C(=O)c2ccc(OCC(=O)O)cc2)cc1	inactive
CC(C)S(=O)(=O)C1=NSC2=NC(=O)/C(=C\c3ccc(-c4cccc(C(=O)O)c4)o3)C(=N)N21	inconclusive [falling, partial curve]
O=C(/C=C/Nc1ccc(Oc2ccccc2)cc1)c1ccco1	inconclusive [falling, partial curve]
O=C(Cc1c[nH]c2ccccc12)NCc1ccc(Cl)cc1Cl	inactive
CCP(=O)(c1ccccc1)C(C)(C)O (stereo not drawn)	inconclusive [falling, full curve, poor fit]
CC1(C)OCC(CSC2=C(SCC3COC(C)(C)O3)C(=O)c3ncccc3C2=O)O1 (stereo not drawn)	inconclusive [falling, full curve]
COc1cccc(CNC(=O)C2CCN(S(=O)(=O)c3ccc(Br)s3)CC2)c1	inactive
CC1(C)Cc2c(sc3nc(SCC(=O)O)[nH]c(=O)c23)CO1	inconclusive [falling, partial curve]
Cc1cccc(/C(N)=N/OC(=O)c2ccc(F)cc2)c1	inconclusive [falling, partial curve]
Cc1ccc(C(=O)Nc2cc3ccccc3oc2=O)cc1	inconclusive [falling, partial curve]
CC(=O)Nc1ccc(S(=O)(=O)N2CCN(c3nc(NC4CCCC4)c4ccccc4n3)CC2)cc1	inconclusive [falling, full curve, poor fit]
C/C(=C/c1ccccc1)C(=O)N1CC(C)OC(C)C1 (stereo not drawn)	inconclusive [falling, single point]
O=S(=O)(NCCSc1ccccn1)c1ccc(Br)cc1	inactive
COc1ccccc1NC(=O)C12CCC(C)(C(=O)C1)C2(C)C (stereo not drawn)	inactive
Oc1cccc(/C=N/Nc2nn3cnnc3c3ccccc23)c1	inconclusive [falling, partial curve]
NC(=O)c1ccccc1N/C=C/C(=O)c1ccc(F)cc1	inconclusive [falling, partial curve]
Cc1ccc(-c2cc3c(nn2)-c2ccccc2C3=O)cc1	active: 12.6 µM
COc1ccc(OCc2cccc(C(=O)O)c2)cc1	inconclusive [falling, single point]
COc1ccc(S(=O)(=O)N2CCN(c3ccc(F)cc3)CC2)cc1OC	inconclusive [falling, partial curve]
O=C(CSC1=NCCS1)Nc1cccc(F)c1	inactive
Cc1ccsc1/C=C/C1=NCCCN1C	inconclusive [falling, partial curve]

Compound	Potency
O=C(CCN1C(=O)c2ccc([N+](=O)[O-])cc2C1=O)Nc1cccc(O)c1	inactive
COc1ccc2c(c1)NC(c1ccc(N(C)C)cc1)c1cccn1-2 (stereo not drawn)	inactive
Cc1ccc2c(Cl)c(C(=O)NCCCn3ccnc3)sc2c1	inactive
COc1cccc2cc(-c3csc(NC(=O)CCC(=O)NCCCN4CCC(C)CC4)n3)c(=O)oc12	inconclusive [falling, partial curve]
Cc1occc1C(=O)Nc1ccc2c(c1)OCO2	inconclusive [falling, partial curve]
COCCCNC(=S)N/N=C/c1ccc(O)cc1	inactive
Cc1c(C(=O)NCCN2C(=O)S/C(=C\c3cccnc3)C2=O)cccc1[N+](=O)[O-]	inactive
Cc1cc(-c2ccccc2)nc(SC(C(=O)O)c2ccccc2)n1 (stereo not drawn)	inconclusive [falling, single point]
CCOC(=O)/C=C/C(=O)Nc1cccc([N+](=O)[O-])c1	inconclusive [falling, single point]
COc1ccc(OC)c(C2CC(=O)N3CN(c4cccc(Cl)c4C)CSC3=C2C#N)c1 (stereo not drawn)	inconclusive [falling, single point]
CCOc1ccc(-n2c(-c3ccccc3)c[n+]3c2CCC3)cc1	inconclusive [falling, single point]
O=C(O)c1ccccc1C(=O)N1CCc2c([nH]c3ccccc23)C1C(F)(F)F (stereo not drawn)	inconclusive [falling, single point]
Cc1[nH]c(=S)c(C#N)c(-c2ccco2)c1C(=O)N(C)C	inconclusive [falling, single point]
CC(NC(=O)CSC1=NCCS1)c1ccccc1 (stereo not drawn)	inactive
CC12CC3(C)CC(C)(C1)CC(C(N)=O)(C2)C3	inconclusive [falling, single point]
Cc1ccc2[nH]c(=O)c(CN(Cc3ccccc3)C(=S)NCCCN(C)C)cc2c1	inconclusive [falling, partial curve]
O=C(Nc1ccc(F)cc1F)N1CCN(c2ncccn2)CC1	inactive
Cc1cc(/C(N)=N/OC(=O)c2ccccc2Cl)no1	inconclusive [falling, partial curve]
COc1ccc(C(=O)COC(=O)c2ccccc2NS(=O)(=O)c2ccc(O)c([N+](=O)[O-])c2)cc1	inconclusive [falling, single point]
CCOC(=O)Cc1nnn(CC(=O)OCC)n1	inconclusive [falling, full curve, poor fit]
COc1ccc(COCCN2CCN(S(=O)(=O)c3ccccc3)CCC2=O)cc1	inactive
O=C(Nc1cc(Cl)cc(Cl)c1)N1CCCN(Cc2ccccc2)CC1	inactive
Cc1ncsc1C(=O)O	inactive
O=C(Nc1ccc([N+](=O)[O-])cc1)C(=O)Nc1cccc(C(=O)O)c1	inconclusive [falling, single point]
